Reference: PubChem BioAssay AID651820 (National Center for Advancing Translational Sciences (NCATS), 2012)
The whole screen tested about 340,000 compounds, of which about 12,000 (3.5%) were called active. The shares of active, inactive and inconclusive entries below differ from those in the screen. The call rests on the fitted dose curve; in most records, active means well fitted inhibition curve with a large enough effect; inconclusive means small, poorly fitted or top-dose-only effect, or another doubt; inactive means no such curve, though single readings can be large or run the other way. Potencies of inconclusive entries are left out as doubtful fits.
On the % scale 0 is the no-effect control and ±100 the full control effect; potency means the concentration at half of the fitted maximal effect; tags describe the fitted curve by direction and shape.

Assay: qHTS Assay for Inhibitors of Hepatitis C Virus (HCV)
Conditions: Huh7.5.1 HCVcc-Cre (HCVcc is cell-culture hepatitis C virus) infection, luciferase reporter, 44 h; activity change, negative = inhibition: at 41.8 µM (top of the series) unless noted
Summary of the method: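 Whole-lifecycle infectious HCVcc-Cre system; cells 1,000/well, compound then virus (~0.5 moi) added 4 h after plating, 44 h culture. Luciferase read 15 sec following 15 min substrate incubation, room temp.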
In the case of `Cc1nc(SCC(=O)N2CCN(c3ccccn3)CC2)c(C#N)c(C)c1C`, the Potency is reported as inconclusive [inhibitor, single point]. With `COc1ccc(CCC(=O)Nc2ccc3c(c2)OCO3)cc1OC` the Potency was inconclusive [inhibitor, full curve, poor fit]. For `CCN(CC)C1CCS(=O)(=O)C1` (stereo not given), the Potency was “inactive”. In the case of `O=C(COc1cccc2cccnc12)NCC(F)(F)F`, the Potency is reported as “inactive”. For `CCN1CCN(c2ccc(S(=O)(=O)N3CCCCC3)cc2NC(=O)c2cccc(C(F)(F)F)c2)CC1`, the Potency was inconclusive [inhibitor, partial curve]. For `CCN(CC)S(=O)(=O)c1ccc2oc(C(=O)NC3CCCc4ccccc43)c(C)c2c1` (stereo not given), the Potency was inconclusive [inhibitor, single point]. In the case of `CCN1CCN(CCCNC(=O)c2ccc3c(c2)N(Cc2ccc(C)cc2)CCS3)CC1`, the Potency is reported as active: 11.2 µM. With `CCC(C)NC(=O)c1c(N)n(/N=C/c2ccccn2)c2nc3ccccc3nc12` (stereo not given) the Potency was inconclusive [inhibitor, single point]. For `Cc1ccc(NS(=O)(=O)c2ccc3c(c2)OCCCO3)cc1S(=O)(=O)N1CCOCC1`, the Potency was “inactive”. For `CC(NC(=O)COC(=O)c1cc(NS(=O)(=O)c2ccc(Cl)c([N+](=O)[O-])c2)ccc1O)C1CC2CCC1C2` (stereo not given), the Potency was inconclusive [inhibitor, single point]. In the case of `Cc1ccc(S(=O)(=O)CCSc2n[nH]c(=O)n2-c2ccc3c(c2)OCCO3)cc1`, the Potency is reported as inconclusive [inhibitor, single point]. With `CO/N=C/C(C#N)=C/c1ccc(OC)cc1` the Potency was “inactive”. In the case of `CCC(C)C(=O)Nc1nc(C)c(-c2csc(Nc3cc(OC)ccc3OC)n2)s1` (stereo not given), the Potency is reported as inconclusive [inhibitor, partial curve]. With `CCOC(=O)c1cccc(NC(=O)CC2Oc3ccccc3NC2=O)c1` (stereo not given) the Potency was “inactive”. With `COc1ccc(OCC(=O)N2c3ccc(C)cc3C3CN(C)CCC32)cc1` (stereo not given) the Potency was “inactive”. In the case of `COc1cccc(CN(C(=O)c2ccccc2Br)C2CCS(=O)(=O)C2)c1` (stereo not given), the Potency is reported as “inactive”. In the case of `COC(=O)C1=C(C)NC2=C(C(=O)CC(C)(C)C2)C1c1cccc(C)n1` (stereo not given), the Potency is reported as “inactive”. For `CCOC(=O)c1cnc(-c2ccc(C(F)(F)F)cn2)[nH]c1=O`, the Potency was “inactive”. With `COc1ccc(C(CCNC(C)c2ccccc2)C(C)C)cc1` (stereo not given) the activity change, negative = inhibition was inconclusive: -34.7% [inhibitor]. With `Cc1nc2ccccc2c(=O)n1-c1ccc(NS(=O)(=O)c2cc(F)ccc2F)cc1` the Potency was “inactive”. In the case of `CCC1CN(C(=O)N2CCC(C(=O)NCc3ccc(F)cc3)CC2)c2ccccc2O1` (stereo not given), the Potency is reported as “inactive”. With `O=C(CN1CCN(c2cccc(Cl)c2)CC1)Nc1nccs1` the Potency was “inactive”. In the case of `C=CCOC(=O)C(=O)/C=C/c1coc2ccccc2c1=O`, the Potency is reported as “inactive”. For `CCN(C(=O)CSc1ncnc2sccc12)c1c(N)n(Cc2ccccc2)c(=O)[nH]c1=O`, the Potency was “inactive”. With `CCn1c2ccccc2c2cc(/C=N/O)ccc21` the Potency was active: 11.2 µM. With `C=CCOc1ccc(/C=C/C(=O)OCC(=O)NCc2ccco2)cc1` the activity change, negative = inhibition was inconclusive: -89.5% [inhibitor]. With `O=C(C#Cc1ccccc1)c1ccco1` the Potency was inconclusive [inhibitor, single point]. For `COc1ccc(NC(=O)CN(c2ccc(F)cc2)S(=O)(=O)c2ccccc2)c(OC)c1`, the Potency was inconclusive [inhibitor, single point]. In the case of `Cc1cc(OCC(=O)NNC(=S)NC(=O)c2ccc(Br)o2)ccc1Cl`, the Potency is reported as “inactive”. For `Cc1ccc(S(=O)(=O)N2CCN(C(=O)CCc3c[nH]c4ccccc34)CC2)c(C)c1`, the Potency was “inactive”. In the case of `CC(/C=C/c1ccc(C)o1)=C\C(=O)O`, the Potency is reported as “inactive”. For `C=CC[C@@H](CC(=O)N[C@@H](CO)Cc1ccccc1)C(=O)N[C@@H](COC(=O)[C@H](CC=C)CC(=O)OC(C)(C)C)Cc1c[nH]c2ccccc12`, the Potency was inconclusive [inhibitor, single point]. With `Cc1cc(NC(=O)C2CC(c3ccccc3Cl)=NO2)no1` (stereo not given) the Potency was inconclusive [inhibitor, single point]. With `CN1CCN(c2ccc(C(=O)c3ccccc3)cc2[N+](=O)[O-])CC1` the Potency was inconclusive [inhibitor, single point]. In the case of `N#CC1=C(N)OC2=C(CN(Cc3ccccc3)C/C2=C\c2cccnc2)C1c1cccnc1` (stereo not given), the Potency is reported as “inactive”. For `COc1cc(NC(=O)CN2C(=O)c3ccccc3S2(=O)=O)c(OC)cc1Cl`, the Potency was “inactive”. For `O=C(CCN1C(=O)/C(=C\c2ccccc2)SC1=S)NNC(=O)c1ccncc1`, the Potency was “inactive”. For `COc1cccc(CC(=O)Nc2nc(-c3cc(OC)ccc3OC)cs2)c1`, the Potency was inconclusive [inhibitor, single point]. For `O=C(Nc1cnc2sc3c(n2c1=O)CCCC3)c1ccc(F)cc1`, the Potency was inconclusive [inhibitor, partial curve]. For `CCOc1ccc(CSCCNC(=S)Nc2ccc(OC)cc2)cc1`, the Potency was active: 10 µM. For `CCN(c1ccccc1)S(=O)(=O)c1ccc(NCC2COc3ccccc3O2)nc1` (stereo not given), the Potency was active: 11.2 µM. In the case of `Cc1cc([N+](=O)[O-])nn1CC(=O)N1CCN(Cc2ccccc2)CC1`, the Potency is reported as “inactive”. In the case of `COc1ccc(NC(=O)c2ccc3c(c2)NC(=O)CS3)cc1`, the Potency is reported as inconclusive [inhibitor, partial curve]. With `Cc1ccc(S(=O)(=O)N2CCC(=O)N(C(COCc3cccc(Cl)c3)C(C)C)CC2)cc1` (stereo not given) the activity change, negative = inhibition was inactive: -0.977% [at 8.37 µM]. In the case of `COc1cc(C(=O)N2CCCCCCC2)ccc1OC1CCN(C(C)=O)CC1`, the Potency is reported as “inactive”. In the case of `Cc1ccc(C2(C)NC(=O)N(CC(=O)N3CCN(S(=O)(=O)c4cccs4)CC3)C2=O)cc1` (stereo not given), the Potency is reported as inconclusive [inhibitor, single point]. In the case of `O=C1c2ccccc2NC(c2ccc(-c3cccc(Cl)c3)o2)N1O` (stereo not given), the Potency is reported as inconclusive [inhibitor, single point]. For `N#C/C=C(/N)N1CCN(c2ccc(Cl)c(Cl)c2)CC1`, the Potency was inconclusive [inhibitor, full curve, poor fit]. In the case of `CN(Cc1ccco1)S(=O)(=O)c1ccc2c(c1)CCN2C(=O)CCC(=O)O`, the Potency is reported as “inactive”. With `COc1ccc(NC(=O)CSc2nc3c(c(-c4cccs4)c2C#N)CN(C)CC3)cc1OC` the Potency was inconclusive [inhibitor, full curve, poor fit]. For `Cc1cc(-c2cc(C(=O)O)c3ccccc3n2)c(C)s1`, the Potency was “inactive”. In the case of `CCn1cc(/C=C(\NC(=O)c2ccccc2Cl)C(=O)NCCN2CCOCC2)c2ccccc21`, the Potency is reported as “inactive”. With `O=C(Nc1cc(Cl)ccc1N1CCOCC1)c1ccc2c(c1)OCCO2` the Potency was inconclusive [inhibitor, full curve]. For `O=C(/C=C/NNC(=O)c1ccc(Cl)cc1)c1ccccc1`, the Potency was active: 8.91 µM. In the case of `CCN1CCN(C(=O)c2cc(COc3ccc(F)cc3F)on2)[C@@H](C)C1=O`, the Potency is reported as active: 11.2 µM. In the case of `Cn1cccc1/C=C1\SC(=S)N(NC(=O)c2ccccc2)C1=O`, the Potency is reported as inconclusive [inhibitor, partial curve]. In the case of `CCOC(=O)Cn1nc(-c2ccc(F)cc2)cc(Cc2ccccc2)c1=O`, the activity change, negative = inhibition is reported as inconclusive: -40.1% [inhibitor]. With `COc1ccc(CCNC(=O)c2cccc(S(=O)(=O)N3CCc4ccccc4C3)c2)cc1` the Potency was active: 14.1 µM. With `Cc1cccc2cc(C#N)c(SCC(=O)NNC(=O)Cc3ccccc3)nc12` the Potency was “inactive”. In the case of `OCCNCc1cccc(OCc2ccc(Cl)cc2)c1`, the Potency is reported as inconclusive [inhibitor, single point]. With `CCCn1c(N2CCC(Cc3ccccc3)CC2)nc2c1c(=O)[nH]c(=O)n2C` the Potency was inconclusive [inhibitor, single point]. In the case of `CS(=O)(=O)N(CC(=O)N1CCN(Cc2ccccc2)CC1)c1cccc([N+](=O)[O-])c1`, the Potency is reported as “inactive”. In the case of `CCN(CC)C(=O)N1CCN(S(=O)(=O)c2ccc(C)c(C)c2)CC1`, the Potency is reported as inconclusive [inhibitor, single point]. For `O=C(CCCN1C(=O)/C(=C/c2ccco2)SC1=S)Nc1cccc(C(=O)O)c1`, the Potency was “inactive”. With `COc1ccc(NS(=O)(=O)c2cc(NC(=O)c3ccc(=O)[nH]n3)ccc2N2CCOCC2)cc1` the Potency was inconclusive [inhibitor, partial curve]. With `CC(=O)N/N=C/c1ccc(OCCOc2ccc(Br)cc2)cc1` the Potency was “inactive”. With `CCCCCn1c(=O)c(C(=O)Nc2ncccc2C)c(O)c2ccccc21` the Potency was inconclusive [inhibitor, partial curve, poor fit]. In the case of `CCC(C)NC(=O)c1ccc(CSCc2ccccc2Cl)o1` (stereo not given), the Potency is reported as inconclusive [inhibitor, single point]. With `CCOC(=O)c1ccccc1NC(=O)CN1C(=O)NC(C)(CCc2ccccc2)C1=O` (stereo not given) the Potency was inconclusive [inhibitor, single point]. In the case of `CC(OC(=O)c1cccs1)C(=O)NC1CCCCC1C` (stereo not given), the Potency is reported as “inactive”. For `COc1ccccc1N=C1SC(C(=O)Nc2cccc(Cl)c2Cl)C(N)=C1C(N)=O` (stereo not given), the Potency was inconclusive [inhibitor, single point]. For `O=C(Nc1ccc(N2CCOCC2)c(Cl)c1)c1ccc(F)cc1`, the Potency was inconclusive [inhibitor, partial curve]. With `Cn1cc(/C=N/Nc2ccccc2)c2ccccc21` the Potency was inconclusive [inhibitor, single point]. In the case of `COc1ccc(OCc2cc(C(=O)NCCc3ccccc3)no2)c(Cl)c1`, the Potency is reported as inconclusive [inhibitor, partial curve]. For `Cc1ccc2nc3cc([N+](=O)[O-])cc([N+](=O)[O-])c3cc2c1`, the Potency was inconclusive [inhibitor, single point].
